43 compounds from the antibiotic and cytotoxicity screens of Wong et al. (2023) can be followed below.

Some of the results follow.

One experiment deals with HSkMC. Description: cytotoxicity call (relative viability < 0.9). The settings on record: 10 µM.
A further experiment relates to HepG2. Description: cytotoxicity call (relative viability < 0.9). To be noted: 10 µM.
A further experiment deals with S. aureus RN4220. The experiment can be described thus: growth inhibition call (relative growth <= 0.2). To be noted: 50 µM.

For the compound `COc1ccc(S(=O)(=O)Nc2cccc3c2O[C@@H](CN(C)C(=O)Nc2cccc4ccccc24)[C@H](C)CN([C@H](C)CO)C3=O)cc1`, the cytotoxicity call in the experiment with HSkMC and with HepG2 was “inactive” throughout. Further, in the experiment on S. aureus RN4220, the growth inhibition call is “inactive”.
As to `COc1ccc2c3c(n(c2c1)C)[C@H](CO)N(C[C@]13CCN(CC1)C(=O)c1cnccn1)C(=O)c1cnccn1`, the cytotoxicity call in the experiment on HSkMC and in the experiment with HepG2 was “inactive” each time. Besides, the growth inhibition call in the experiment with S. aureus RN4220 was “inactive”.
Take `C[C@@H]1CCCCO[C@H](CN(C)S(=O)(=O)c2ccccc2)[C@@H](C)CN([C@H](C)CO)C(=O)c2cc(NC(=O)Nc3ccc(F)cc3)ccc2O1`: the cytotoxicity call in the experiment on HSkMC and in the experiment with HepG2 was “inactive” throughout. Also, the growth inhibition call with S. aureus RN4220 is “inactive”.
As to `COc1ccccc1CNC(=O)C[C@@H]1C[C@@H]2c3cc(NC(=O)c4cccnc4)ccc3O[C@@H]2[C@@H](CO)O1`, the cytotoxicity call in the experiment with HSkMC and in the experiment with HepG2 was “inactive” throughout. Also, the growth inhibition call in the experiment on S. aureus RN4220 is “inactive”.
Turning to `C[C@H](CO)N1C[C@H](C)[C@@H](CN(C)Cc2ccc(C(F)(F)F)cc2)Oc2ccc(NC(=O)Cn3cnnn3)cc2C1=O`, the cytotoxicity call in the experiment with HSkMC and in the experiment on HepG2 was “inactive” throughout. In addition, the growth inhibition call in the experiment on S. aureus RN4220 is “inactive”.
`CC(C)C[C@](O)(C(=O)OCc1ccc(O[C@@H]2O[C@H](CO)[C@@H](O)[C@H](O)[C@H]2O)cc1)[C@@H](O)C(=O)OCc1ccc(O[C@@H]2O[C@H](CO)[C@@H](O)[C@H](O)[C@H]2O)cc1`: the cytotoxicity call with HSkMC and with HepG2 was “inactive” each time. Also, the growth inhibition call with S. aureus RN4220 is “inactive”.
As to `CO[C@@H]1CN(C)C(=O)c2ccc(NC(=O)C3CCC3)cc2OC[C@@H](C)N(C(=O)Nc2ccc(C(F)(F)F)cc2)C[C@H]1C`, the cytotoxicity call in the experiment with HSkMC and with HepG2 was “inactive” in each case. For the same compound, the growth inhibition call with S. aureus RN4220 was “inactive”.
For `CN1CCN(C(=O)C[C@H]2CC[C@H]3[C@@H](COC[C@H](O)CN3C(=O)Nc3cc(Cl)cc(Cl)c3)O2)CC1`, the cytotoxicity call with HSkMC and in the experiment on HepG2 was “inactive” throughout. The growth inhibition call with S. aureus RN4220 was “inactive”.
`Oc1c(I)cc(Cl)c2cccnc12`: the cytotoxicity call in the experiment on HSkMC is “inactive”. Besides, the cytotoxicity call with HepG2 is “active”. Besides, the growth inhibition call in the experiment on S. aureus RN4220 was “inactive”.
Regarding `O=C(OCc1ccccc1)c1cccnc1`, the cytotoxicity call in the experiment with HSkMC is “inactive”. In the experiment on HepG2, the cytotoxicity call is “active”. The growth inhibition call in the experiment with S. aureus RN4220 is “inactive”.
Regarding `CN(C)C(=O)C[C@H]1C=C[C@@H](NC(=O)C2CCOCC2)[C@@H](CO)O1`, the cytotoxicity call in the experiment on HSkMC and in the experiment with HepG2 was “inactive” throughout. The growth inhibition call with S. aureus RN4220 was “inactive”.
`C[C@H](O)C#Cc1ccc2c(c1)O[C@H](CN(C)C)[C@@H](C)CN([C@H](C)CO)S2(=O)=O`: the cytotoxicity call with HSkMC and with HepG2 was “inactive” each time. Also, the growth inhibition call in the experiment on S. aureus RN4220 is “inactive”.
Regarding `CCn1cc(-c2ccnc3[nH]c(-c4cccc(CN(C)C)c4)cc23)c(-c2ccc(NC(=O)N(C)C)cc2)n1`, the cytotoxicity call in the experiment with HSkMC and with HepG2 was “active” throughout. Besides, the growth inhibition call with S. aureus RN4220 is “inactive”.
Consider `COc1ccc(NC(=O)N2CCCCN3[C@H](CN(C)C(C)=O)[C@H](c4ccc(C#Cc5ccccc5)cc4)[C@@H]3C2)cc1`, for which the cytotoxicity call with HSkMC and with HepG2 was “active” each time. In addition, in the experiment on S. aureus RN4220, the growth inhibition call is “inactive”.
Turning to `CN1C(=O)COc2cc(N)ccc21`, the cytotoxicity call in the experiment on HSkMC and in the experiment on HepG2 was “inactive” each time. In the experiment with S. aureus RN4220, the growth inhibition call is “inactive”.
Take `C[C@@H]1CN([C@@H](C)CO)C(=O)c2cc(NC(=O)c3ccccc3)ccc2O[C@@H](C)CCCCO[C@H]1CN(C)C(=O)Nc1ccc2c(c1)OCO2`: the cytotoxicity call in the experiment on HSkMC and with HepG2 was “inactive” in each case. Besides, in the experiment on S. aureus RN4220, the growth inhibition call was “inactive”.
On to `C[C@H]1CN([C@@H](C)CO)C(=O)c2cccc(NC(=O)Nc3ccc4c(c3)OCO4)c2O[C@@H]1CN(C)Cc1ccc(Oc2ccccc2)cc1`, for which the cytotoxicity call in the experiment on HSkMC and in the experiment on HepG2 was “inactive” in each case. Also, the growth inhibition call in the experiment with S. aureus RN4220 is “inactive”.
As to `COc1ccc(CN(C)C[C@H]2OCCCC[C@@H](C)Oc3ccc(NC(=O)c4ccccc4)cc3C(=O)N([C@H](C)CO)C[C@@H]2C)cc1`, the cytotoxicity call in the experiment with HSkMC and with HepG2 was “inactive” each time. Further, in the experiment on S. aureus RN4220, the growth inhibition call was “inactive”.
Turning to `NC[C@H]1CC[C@H](C(=O)N2CCC(c3ccncc3)CC2)CC1`, the cytotoxicity call with HSkMC and in the experiment on HepG2 was “inactive” in each case. Further, in the experiment with S. aureus RN4220, the growth inhibition call is “inactive”.
`C[C@H](CO)N1C[C@H](C)[C@@H](CN(C)S(=O)(=O)c2ccc(Cl)cc2)Oc2c(NC(=O)Nc3cccc4ccccc34)cccc2C1=O`: the cytotoxicity call in the experiment on HSkMC is “inactive”. The cytotoxicity call in the experiment on HepG2 was “active”. In addition, in the experiment on S. aureus RN4220, the growth inhibition call was “inactive”.
`COc1cccc(S(=O)(=O)Nc2ccc3c(c2)[C@H]2C[C@H](CC(=O)NCc4cccc(F)c4)O[C@@H](CO)[C@H]2O3)c1`: the cytotoxicity call in the experiment with HSkMC and with HepG2 was “inactive” each time. In addition, in the experiment on S. aureus RN4220, the growth inhibition call was “inactive”.
Consider `Cc1noc(C)c1NC(=O)Nc1ccc2c(c1)C(=O)N([C@@H](C)CO)C[C@@H](C)[C@H](CN(C)CC1CCCCC1)OCCCC[C@@H](C)O2`, for which the cytotoxicity call in the experiment on HSkMC and in the experiment with HepG2 was “inactive” each time. The growth inhibition call in the experiment on S. aureus RN4220 is “inactive”.
For `C[C@H]1CN([C@@H](C)CO)C(=O)c2ccccc2-c2ccccc2CO[C@H]1CN(C)Cc1ccc(Oc2ccccc2)cc1`, the cytotoxicity call in the experiment on HSkMC and in the experiment with HepG2 was “inactive” throughout. Besides, the growth inhibition call with S. aureus RN4220 was “inactive”.
Turning to `Cc1noc(C)c1NC(=O)Nc1cccc2c1O[C@H](CN(C)S(=O)(=O)c1cn(C)cn1)[C@H](C)CN([C@@H](C)CO)C2=O`, the cytotoxicity call in the experiment on HSkMC and in the experiment with HepG2 was “inactive” each time. Besides, in the experiment with S. aureus RN4220, the growth inhibition call was “inactive”.
As to `C[C@H]1CN([C@@H](C)CO)C(=O)Cc2cc(NC(=O)C3CC3)ccc2O[C@@H]1CN(C)Cc1ccc(Oc2ccccc2)cc1`, the cytotoxicity call with HSkMC and in the experiment with HepG2 was “inactive” in each case. Moreover, the growth inhibition call in the experiment on S. aureus RN4220 is “inactive”.
As for `CCN(CC)C(=O)C(C#N)=Cc1cc(O)c(O)c([N+](=O)[O-])c1`, the cytotoxicity call in the experiment with HSkMC and in the experiment with HepG2 was “inactive” each time. For the same compound, in the experiment with S. aureus RN4220, the growth inhibition call was “inactive”.
Take `CCC(=O)N1CCC[C@@H]1C(=O)O`: the cytotoxicity call in the experiment on HSkMC and in the experiment on HepG2 was “inactive” each time. In addition, in the experiment on S. aureus RN4220, the growth inhibition call was “inactive”.
As to `C[C@@H]1CCCCO[C@H](CN(C)C(=O)Nc2ccc(F)cc2)[C@H](C)CN([C@H](C)CO)C(=O)c2cc(NC(=O)Nc3ccc(C(F)(F)F)cc3)ccc2O1`, the cytotoxicity call in the experiment on HSkMC and with HepG2 was “inactive” each time. In addition, the growth inhibition call with S. aureus RN4220 is “inactive”.
Consider `Cc1noc(C)c1NC(=O)N(C)C[C@H]1OCCCC[C@@H](C)Oc2ccc(NC(=O)Nc3cccc4ccccc34)cc2C(=O)N([C@H](C)CO)C[C@@H]1C`, for which the cytotoxicity call with HSkMC and in the experiment with HepG2 was “inactive” in each case. The growth inhibition call in the experiment with S. aureus RN4220 was “inactive”.
Take `C[C@H](CO)N1C[C@H](C)[C@@H](CN(C)S(=O)(=O)c2ccc(Cl)cc2)Oc2ccc(NC(=O)CCCN(C)C)cc2C1=O`: the cytotoxicity call with HSkMC and in the experiment on HepG2 was “inactive” in each case. Moreover, in the experiment on S. aureus RN4220, the growth inhibition call was “inactive”.
`C[C@@H]1CCCCO[C@@H](CN(C)S(=O)(=O)c2cn(C)cn2)[C@H](C)CN([C@@H](C)CO)C(=O)c2cc(NS(C)(=O)=O)ccc2O1`: the cytotoxicity call in the experiment on HSkMC and in the experiment on HepG2 was “inactive” each time. Also, the growth inhibition call in the experiment on S. aureus RN4220 was “inactive”.
On to `CC(=O)N(C)C[C@H]1Oc2cc(C#CCN(C)C)ccc2S(=O)(=O)N([C@H](C)CO)C[C@H]1C`, for which the cytotoxicity call in the experiment with HSkMC and in the experiment on HepG2 was “inactive” in each case. The growth inhibition call in the experiment with S. aureus RN4220 was “inactive”.
As to `C[C@@H]1CN([C@H](C)CO)C(=O)c2ccccc2-c2ccccc2CO[C@@H]1CN(C)C(=O)Nc1ccc(F)cc1`, the cytotoxicity call in the experiment on HSkMC and in the experiment on HepG2 was “inactive” throughout. In the experiment on S. aureus RN4220, the growth inhibition call is “inactive”.
Turning to `C[C@@H]1CCCCO[C@@H](CN(C)Cc2ccccc2)[C@H](C)CN([C@H](C)CO)C(=O)c2cc(NS(=O)(=O)c3cccs3)ccc2O1`, the cytotoxicity call in the experiment with HSkMC and in the experiment on HepG2 was “inactive” throughout. For the same compound, the growth inhibition call with S. aureus RN4220 was “inactive”.
`Cc1noc(C)c1S(=O)(=O)Nc1ccc2c(c1)C(=O)N([C@@H](C)CO)C[C@@H](C)[C@H](CN(C)C(=O)Nc1cccc3ccccc13)OCCCC[C@@H](C)O2`: the cytotoxicity call in the experiment with HSkMC and with HepG2 was “inactive” in each case. For the same compound, the growth inhibition call with S. aureus RN4220 is “inactive”.
With `CCO[C@H]1OC(C(=O)N2CCOCC2)=C[C@@H](c2coc3ccccc3c2=O)[C@@H]1CCCOC(=O)NCCCCCC(=O)NO`, the cytotoxicity call in the experiment on HSkMC and in the experiment on HepG2 was “inactive” throughout. Also, the growth inhibition call with S. aureus RN4220 was “inactive”.
For the compound `CCOC(=O)c1c[nH][nH]c1=O`, the cytotoxicity call with HSkMC and in the experiment on HepG2 was “inactive” each time. Moreover, the growth inhibition call in the experiment with S. aureus RN4220 was “inactive”.
Take `Cc1ccc(S(=O)(=O)N(C)C[C@H]2Oc3ccc(NC(=O)C4CC4)cc3CC(=O)N([C@@H](C)CO)C[C@H]2C)cc1`: the cytotoxicity call in the experiment with HSkMC and in the experiment on HepG2 was “inactive” each time. In addition, the growth inhibition call in the experiment on S. aureus RN4220 was “inactive”.
Take `C=CCOC(=O)[C@H]1[C@@H]2C(=O)O[C@@H](c3ccccc3)[C@@H](c3ccccc3)N2[C@@H](c2ccc(OCCOC(=O)[C@H]3C[C@H]4C(=O)N[C@@H](CC(C)C)C(=O)N4[C@H]3c3ccc(O)cc3)cc2)[C@]12C(=O)Nc1ccccc12`: the cytotoxicity call with HSkMC and with HepG2 was “inactive” in each case. Moreover, the growth inhibition call with S. aureus RN4220 was “inactive”.
Take `C[C@@H]1CN([C@@H](C)CO)C(=O)c2cc(NC(=O)Nc3cccc4ccccc34)ccc2O[C@H]1CN(C)Cc1ccc(C(=O)Nc2ccccc2N)cc1`: the cytotoxicity call in the experiment on HSkMC and in the experiment with HepG2 was “inactive” each time. The growth inhibition call with S. aureus RN4220 is “inactive”.
`C[C@@H]1CCCCO[C@H](CN(C)C(=O)c2ccccc2)[C@@H](C)CN([C@@H](C)CO)C(=O)c2cc(NC(=O)Nc3ccc(F)cc3)ccc2O1`: the cytotoxicity call in the experiment on HSkMC (human skeletal muscle cells) and in the experiment with HepG2 was “inactive” throughout. For the same compound, the growth inhibition call in the experiment with S. aureus RN4220 is “inactive”.
As for `C[C@H](CO)N1C[C@H](C)[C@@H](CN(C)S(=O)(=O)c2cccs2)Oc2c(NC(=O)c3ccncc3)cccc2C1=O`, the cytotoxicity call in the experiment with HSkMC and with HepG2 was “inactive” throughout. Moreover, the growth inhibition call in the experiment on S. aureus RN4220 is “inactive”.
Regarding `C[C@H]1CN([C@@H](C)CO)C(=O)c2ccccc2-c2ccccc2CO[C@H]1CN(C)Cc1cccc(C(F)(F)F)c1`, the cytotoxicity call with HSkMC and in the experiment on HepG2 was “inactive” in each case. Besides, in the experiment with S. aureus RN4220, the growth inhibition call was “inactive”.
